Assay results from the supplement of paper PMC11417369.
The list shows a part of the results.

system: PfHDP1 homeodomain (GST-tagged); assay: gcPBM binding intensity (ln(normalized median fluorescence intensity)); higher = stronger DNA binding
How it was run: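 Probes on an Agilent 4 × 180k array were primer-extended, double-stranded and 36 bp long, taken from intergenic genomic regions, with negative controls added. GST-tagged P. falciparum DNA-binding domains from E. coli, about 25 μg on average, were applied to the array for 1 h in 1× PBS containing 1% milk, 0.2 mg/ml BSA, 0.5% salmon testes DNA and 0.03% Triton X-100. Binding intensity, obtained after Alexa488 anti-GST antibody detection and a 488 nm scan, is the highest Masliner-normalised natural-log median intensity across replicate spots of either probe orientation.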

Sequence	gcPBM binding intensity (ln)
ATCATTGAAGTTAAAAATATAAAGTATTCAGAAGGG [XGTACX_negctrl_site560]	6.76
AATATATATATAGGATGTACACATAATTCAAATATA [XGTACX_site2755]	6.75
AGCCATTATAATTCTTGTACATAATATAGCTATTTT [XGTACX_site1723]	6.87
AATAATATTGAAATGTGTACGTATTTATATTTTATG [XGTACX_site8252]	6.45
TTTTTCTTTTTTACAGTGCATAAATATATGTATTGT [GTGCAC_site9399]	8.27
TTTTGTTATATTCAATATTTATATATTATAAATATA [CACACA_negctrl_site1705]	6.41
TTGTGAATAACTAAGAAGAAAAAGATAAATATGTAT [TGCATGCA_negctrl_site388]	7.14
TATTCATGCATATACACACACATATATTTATATTTT [CACACA_site7786]	7.08
AATAATATATGGTGTACACAAAAGTATAAATAATTT [CACACA_site5338]	7.19
TATAAAAAAATAATAAATAAATAAAAAGATTTCTTT [TGCATGCA_negctrl_site122]	5.73
TAGATACATACACGCACACACATATATAAATAAATA [CACACA_site6157]	7.75
TTACGTATGTATTATGTTGTATATGAAATTAAAAAA [GTGCAC_negctrl_site292]	6.26
TAATTATGTACTATTATACACACGTTTAATTGTAAA [CACACA_site206]	6.52
AAAAAAAACAGACACACACACATACACATACATACA [CACACA_site2857]	6.96
TATTTAAATTGTAAGTGTACATATATAAATGTAAAA [XGTACX_site1609]	6.35
TATATAGTAATTTATTCACACAATTGGCACACCTCA [CACACA_site4679]	6.67
TATAATATATATTTGTGTCCACAACATTTTTAATAT [XGTACX_site2089]	6.52
TAGATACAGAAACACACACACACATACATATATACA [CACACA_site3437]	6.75
AATAAATTAAAACAGGTGCACTATATTACACACGCT	9.7
TTATGGAGAGTTATATGTACGAAAAATATGTATAAG [XGTACX_site515]	6.7
AGAATTATTGTTAATGCATGTGGAAGTTAAAATATT [TGCATGCA_site188]	6.86
CAATATAAAAAACACACACACAAACATATATTTATA [CACACA_site3703]	6.93

Sequence	gcPBM binding intensity (ln)
TGTCGGCTTAGATTAGTGCACTGAAAAATGAAGTAT [GTGCAC_site9919]	10.2
TATTTATATAAAAATACACACATGAATGGATATATA [CACACA_site6335]	6.4
CACCAATTCCTATGCACACACATCTGCATATTATAT [CACACA_site5049]	9.86
TTATTTACATCAAGTACATGCAGTAAAAAAAAAAAA [TGCATGCA_site351]	6.41
ACAAAACGAACATACGCATGTGTGTACATTAATATA [TGCATGCA_site922]	7.03
ATGAACAGTTCATGTTGTACAATCTCCATTTTTTAC [XGTACX_site3933]	6.79
ATATAATATATGTATACACACATATTATATAATATT [CACACA_site3699]	6.46
ATTAATTAAGGCACATGTACAAAATATTTTTTATAA [XGTACX_site1964]	7.12
TATACAATCTATATAACACACATATTTATATAAAAT [CACACA_site1797]	6.65
GTAACATACACATATACACACACACCGATATACATA [CACACA_site8278]	7.21
AATATAGTTCAATATACACACCCCTTTATTCATTTT [CACACA_site3625]	6.57
TATATATATATATATGCATGTACATATATTTGTTAT [TGCATGCA_site379]	9.2
TTTTTTTTTTTTTTTTGTACTTAAAAATTTATATAA [XGTACX_site7718]	6.34
ATTTAACTAAAGAAGGCACACGTGTTTAAAAAAAAA [CACACA_site5241]	6.49
CATTTATATATATACACACACACAAAAAAAAAAAAA [CACACA_site2645]	6.52
AATATTATATTTTATTGTACTAATAAAAATATATGC [XGTACX_site5435]	6.43
GACGTTATGATACACATACACACAGGGATAAAAAAT [CACACA_site2882]	6.81
TATACACATTTTTATACACACTTGTTTTATAAAACG [CACACA_site6480]	6.91
ATAATATGAAATATAACACACATATATAAAAACATT [CACACA_site866]	6.69
TATTTTTTTTTTGGGTGTACCTTTTATATATATTGT [XGTACX_site5036]	6.74
TTATCTTACATAAATTATAACAATAATATGTGTATA [XGTACX_negctrl_site379]	6.03
TGTATATATTATAAAAGTACATAATATTCTTAGATA [XGTACX_site5623]	6.19

Sequence	gcPBM binding intensity (ln)
CATTTCGAAAAAAAATGTACTTATTATATTTATATA [XGTACX_site6752]	6.04
AGCATTAAAAATGGAATGGAATTAAGCTATATATTA [CACACA_negctrl_site1571]	6.18
GAAACTTCAAGAAATGCACACAATAAAATAAATAAA [CACACA_site1549]	9.4
ATAGAATATTATATTACACACAGAATAATAAAAAAT [CACACA_site86]	6.38
AGTATATATTATATATATATATATATATTATATATG [TGCATGCA_negctrl_site99]	6.59
ACATCTCTTATATATTCACACACATATATATAATTA [CACACA_site8424]	7.05
GCACATCTATATGAAACACACATGGAAACATCTCTT [CACACA_site7793]	6.53
TTTTTTTTTTAATTCGCACACTGTCTTCATGCAATT [CACACA_site4882]	7.23
TTAAAAAATTTTTAAGCACACACATAGATAATATAT [CACACA_site8440]	7.07
ATGGGACATATATATACACACATATATATATATATA [CACACA_site1202]	9.32
TTTAATCATATGTTATATAATAAGCCCCCCCCCCAA [CACACA_negctrl_site486]	9.33
AAAAAAATTAAACATGAAGAATAAGGAACAAAAAAA [CACACA_negctrl_site1607]	6.84
ATTTAAGTAGTACATACACACACATATACAAAAAGA [CACACA_site9317]	7.29
TTTTGTCTTATATGTTGTACAACGTAAACAAAAAAA [XGTACX_site4412]	6.47
AAAAGAATATATAATTGTACTTAAAATATAATTAAG [XGTACX_site4484]	6.15
TTTCGATTAAAAATTGTACAATATAAGGAGCACACA [GTGCAC_negctrl_site476]	7.92
ACTGTAACAATCATGGGTACAAATAAAATAATATCT [XGTACX_site99]	6.45
ATGAAAATTATAAAGTGTACATATAGAAACATTTAC [XGTACX_site8047]	6.38
CTTTTTTTGACCTTAGTGCAAATAACTATATATTAT	9.48
AACCACAGACATATAACACACATATACAATATATAT [CACACA_site5142]	6.74
TAAAAAAAAAAATGAACATGCAACAATTGTGATGAA [TGCATGCA_site332]	6.94
TAAATATATTTATAAGCACACACTAATAAACCAACA [CACACA_site8022]	7.05

Sequence	gcPBM binding intensity (ln)
TTATGCAATTTGTATTGTACATTCATGATATTAATA [XGTACX_site5070]	7.05
AATGTGTACGCACGCACACACAAAAAAATATATATA [CACACA_site2913]	7.86
ATCTATATCTATAATACACACATAAATGGATATATA [CACACA_site6284]	6.6
CAAGCCCTTCTGCTTACACACAGTAATTATTGTGCA [CACACA_site7399]	6.34
TATATATAGAAACACACACACACACCCAAGCGTAGC [CACACA_site63]	7.03
ATTATAACTAAATAAATGATATATAATATTTTATTT [XGTACX_negctrl_site234]	5.89
TAATAAATCAATAAATGTACATATATGTATAATTTC [XGTACX_site980]	6.47
AATTATAAAAAAAAAAAAAAAAAAAAAAACTAAATG [CACACA_negctrl_site1379]	6.04
ATAATGTATTTATATATATATATATATTTTAATAAA [CACACA_negctrl_site460]	6.43
TTTAAAAATATATTCACACAGAAATAGTAAAAGTTA [CACACA_site4587]	6.55
ATATATTTATATATTTGTACATATAATATCTTCTTT [XGTACX_site8504]	6.09
ATTTATTAATTACCATGTATAAAAAATTATATAATA [CACACA_negctrl_site581]	6.25
GTCGTATAATTTTCAGTGCAATATTTGAATAAATGG [GTGCAC_site9404]	8.97
AGCAACTCAATATATATAAGAATTGTAATATAATAT [GTGCAC_negctrl_site429]	6.44
ATACAATACAAAAACACACACAAAAAAAGAAAAGGA [CACACA_site2156]	7.32
AATACCCATATCTTCACACATACATAATAAATTATA [CACACA_site5367]	6.78
TTTATTTATGTGTGGGTGCATATACGTATGATGTAT	9.12
TTTGAATATTCATATGCACACAAATTAATATACATA [CACACA_site8040]	9.99
GATTTATACAAATATGTACACACTAAATATATATTA [CACACA_site455]	6.86
TTTATTTTATTTTCATGTACAAAAGGGGAATAATAA [XGTACX_site2704]	6.67
ATATGTATGTATTTATTATTGTGCATTGTATTTATA [CACACA_negctrl_site664]	10.3
TATTTATCTTTACGCACACACTTGCATGTACAAAAG [CACACA_site4753]	8.41
